Data: the supplement of paper PMC4604168 (melanoma cell lines)
Some of the results follow. Single values are uncertain, as repeats are few or missing.

Assays:
Assay in all cases: cell count relative to DMSO control; melanoma cells; higher = more viable cells
Settings in all cases: library dose: standard library concentration; 72 h
G361 = test system: G361
IPC-298 = test system: IPC-298
IST-MEL1 = test system: IST-MEL1
LB2518-MEL = test system: LB2518-MEL
LOXIMVI = test system: LOXIMVI
MEL-HO = test system: MEL-HO
MZ2-MEL = test system: MZ2-MEL
MeWo = test system: MeWo
RPMI7951 = test system: RPMI7951
RVH-421 = test system: RVH-421
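Note: cells treated in 1,536-well plates, then fixed and DAPI-stained, with nuclei counted from automated high-throughput microscope images.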

| SMILES | cell count (G361) | cell count (IPC-298) | cell count (IST-MEL1) | cell count (LB2518-MEL) | cell count (LOXIMVI) | cell count (MEL-HO) | cell count (MZ2-MEL) | cell count (MeWo) | cell count (RPMI7951) | cell count (RVH-421) |
| --- | --- | --- | --- | --- | --- | --- | --- | --- | --- | --- |
| CC1(C)CCC(c2ccc(Cl)cc2)=C(CN2CCN(c3ccc(C(=O)NS(=O)(=O)c4ccc(N[C@H](CCN5CCOCC5)CSc5ccccc5)c(S(=O)(=O)C(F)(F)F)c4)cc3)CC2)C1 + CC(C)C[C@H](NC(=O)[C@H](Cc1ccccc1)NC(=O)c1cnccn1)B(O)O [Bortezomib] (first compound 2 µM, partner dose 0.005 µM) | 1.16% | 6.05% | 9.54% | 1.67% | 30.8% | 12.4% | 1.76% | 12.9% | 2.56% | 7.1% |
| CC1(C)CCC(c2ccc(Cl)cc2)=C(CN2CCN(c3ccc(C(=O)NS(=O)(=O)c4ccc(N[C@H](CCN5CCOCC5)CSc5ccccc5)c(S(=O)(=O)C(F)(F)F)c4)cc3)CC2)C1 + C=CCNC1=C2C[C@@H](C)C[C@H](OC)[C@H](O)[C@@H](C)/C=C(\C)[C@H](OC(N)=O)[C@@H](OC)/C=C\C=C(/C)C(=O)NC(=CC1=O)C2=O [Tanespimycin] (first compound 2 µM, partner dose 0.01 µM) | 49.4% | 86.4% | 42.7% | – | 72.2% | 66.2% | – | 83.8% | 8.11% | 52.2% |
| O=C(/C=C/c1cccnc1)NCCCCC1CCN(C(=O)c2ccccc2)CC1 + CCN(CC)CCNC(=O)c1c(C)[nH]c(/C=C2\C(=O)Nc3ccc(F)cc32)c1C [sunitinib] (first compound 0.05 µM, partner dose 2 µM) | 2.98% | 18.4% | 55.5% | 40.3% | 135% | 23% | 33% | 61.1% | 91.2% | 30.8% |
| O=C(/C=C/c1cccnc1)NCCCCC1CCN(C(=O)c2ccccc2)CC1 + Nc1cccc2c1CN(C1CCC(=O)NC1=O)C2=O [lenalidomide] (first compound 0.05 µM, partner dose 5 µM) | 6.38% | 34.4% | 69.7% | 63% | 54% | 42.7% | 38.3% | 104% | 136% | 32% |
| O=C(/C=C/c1cccnc1)NCCCCC1CCN(C(=O)c2ccccc2)CC1 + O=C(O)C(=O)Nc1sc2c(c1C(=O)O)CCNC2 [TCS401] (first compound 0.05 µM, partner dose 8.33333 µM) | 8.63% | 42.4% | 66.3% | 62% | 86.1% | 48.4% | 67.9% | 91% | 93.8% | 68.7% |
| CC1(C)CCC(c2ccc(Cl)cc2)=C(CN2CCN(c3ccc(C(=O)NS(=O)(=O)c4ccc(N[C@H](CCN5CCOCC5)CSc5ccccc5)c(S(=O)(=O)C(F)(F)F)c4)cc3)CC2)C1 + NC(=O)Nc1cc(-c2cccc(F)c2)sc1C(=O)N[C@H]1CCCNC1 [AZD7762] (first compound 2 µM, partner dose 0.1 µM) | 76.5% | 97.1% | 60% | 56.9% | 35.8% | 62.8% | 109% | 75.6% | 16.6% | 44.2% |
| CC1(C)CCC(c2ccc(Cl)cc2)=C(CN2CCN(c3ccc(C(=O)NS(=O)(=O)c4ccc(N[C@H](CCN5CCOCC5)CSc5ccccc5)c(S(=O)(=O)C(F)(F)F)c4)cc3)CC2)C1 + COc1ccc2c(c1)CCC1C2CCC2(C)C(NCCCCCCN3C(=O)C=CC3=O)CCC12 [U73122] (first compound 2 µM, partner dose 2 µM) | 65.4% | 102% | 83% | – | 27.6% | 63% | – | 49.8% | 6.33% | 44.6% |
| O=C(/C=C/c1cccnc1)NCCCCC1CCN(C(=O)c2ccccc2)CC1 + C#Cc1cccc(Nc2ncnc3cc(OCCOC)c(OCCOC)cc23)c1 [erlotinib] (first compound 0.05 µM, partner dose 4 µM) | 4.91% | 36.8% | 59.6% | – | 62.1% | 45% | – | 66.1% | 57.2% | 37.8% |
| O=C(/C=C/c1cccnc1)NCCCCC1CCN(C(=O)c2ccccc2)CC1 + O=C(O)[C@@H]1[O][Sb](=[O])([O][Sb]2(=[O])[O][C@H]([C@H](O)CO)[C@H](O)[C@H](C(=O)O)[O]2)[O][C@H]([C@H](O)CO)[C@@H]1O [stibogluconate] (first compound 0.05 µM, partner dose 10 µM) | 4.57% | 31.1% | 66.3% | 50.8% | 64.3% | 43.2% | 48.6% | 106% | 125% | 34.4% |
| O=C(/C=C/c1cccnc1)NCCCCC1CCN(C(=O)c2ccccc2)CC1 + CN(C)S(=O)(=O)c1ccc2c(c1)/C(=C/c1cc3c([nH]1)CCCC3)C(=O)N2 [SU6656] (first compound 0.05 µM, partner dose 2 µM) | 5.98% | 46.3% | 59.1% | 74.6% | 74.9% | 43.1% | 46.2% | 105% | 64.6% | 19.2% |
